Source: the supplement of paper PMC11417369
The other results are listed elsewhere or left out.

Test system: PfHDP1 homeodomain (GST-tagged)
Assay: gcPBM binding intensity (ln(normalized median fluorescence intensity)); higher = stronger DNA binding
Summary of the method: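 GST-tagged P. falciparum DNA-binding domains, expressed in E. coli (about 25 μg on average), were applied for 1 h to an Agilent 4 × 180k array of primer-extended double-stranded 36-bp intergenic genomic probes plus negative controls. The binding buffer was 1× PBS with 1% milk, 0.2 mg/ml BSA, 0.5% salmon testes DNA and 0.03% Triton X-100. Bound protein was detected with Alexa488 anti-GST antibody and scanned at 488 nm. Binding intensity is the highest Masliner-normalised natural-log median intensity across replicate spots of either probe orientation.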

Sequence	gcPBM binding intensity (ln)
TAAATTAATATGTATCGTACAATATATAAAACGATG [XGTACX_site2818]	6.53
AAATATAAAATTTATTGTACATTATATATAATATAT [XGTACX_site1416]	6.31
TATTATAATATTTATACACACATAATTTTGATAAAT [CACACA_site583]	6.45
TGATATATTTATATTACACACTTAAACGAAAAAAAA [CACACA_site3021]	6.54
ATATATATATTATATGCACACGTTAAAATTTCATAT [CACACA_site4552]	10.3
TAAAAATATTAATAAACACACAATGAGATATTGAAT [CACACA_site3153]	6.21
ATATTATATATATAGGTGCGAGTATTTTATAAATAT [GTGCAC_site9889]	6.93
TAAGTATACACATACACACACACACTAATAAAAAAA [CACACA_site8035]	6.81
TATACACCCGGACACACACACATATATATATATATA [CACACA_site5030]	9.36
AAAAAAAAAAAAATCACACACAATATGAATTTATAG [CACACA_site601]	6.14
AATACAATTTCTAGCACACAAAATATTATTATAATT [CACACA_site3223]	6.5
AAAAAACAATCTCATACACACTAGGGATTAATTATT [CACACA_site5051]	6.31
TATAGAAGCGTTCACACACACACATACATACCCATA [CACACA_site4915]	6.97
TTATATATATTTAAATTTTATCTCACATATATATAT [TGCATGCA_negctrl_site275]	8.34
TCCCTAAAAAATGATAAATGGAGACAATTCCGACAA [GTGCAC_negctrl_site209]	6.16
ATATATATAACATATACACACGTTCATATATATATA [CACACA_site4416]	8.66
TTACAAGTAAAAGGTACACACATTATATATACAAAT [CACACA_site8290]	6.75
TAATTTTTATTTTATTTTATTTTTTTTTTTTTTATT [CACACA_negctrl_site1671]	5.95
TATAAAAAATAAAAAGTTTAATGAATATTTCTTTTA [TGCATGCA_negctrl_site379]	5.53

Sequence	gcPBM binding intensity (ln)
TCACATGGAAAAAAGTGTACATAATTATGTATAAAT [XGTACX_site2827]	6.89
ACAAGACAGATATATACACACATACATACATACATA [CACACA_site7472]	7.03
TTTAACTTATTCAATGCACACATTTTAATAAGATAT [CACACA_site1967]	8.41
TTTCTTAAAAAAAAAAAAAAAAGAAGATAAATAAAA [CACACA_negctrl_site289]	5.97
ATATTTATTTATATTACACACATGTGCAATTAAACT [CACACA_site6928]	10.7
CTAGCAAATACATACACACACACACCGATACATATA [CACACA_site9164]	7.03
ATGGATAACAATATGTGTACACATTTATATCTCCAC [XGTACX_site5457]	6.72
ATACATTTTTTTTATACGCACACGTCATACTTTTAA [CACACA_site1638]	7.53
AAGCATGGATATTTTACACACATTTCCACGTAACAA [CACACA_site3141]	6.36
ATATAATAGAAGTGTACACACATATTTATGTCTGTA [CACACA_site3121]	6.74
ATATTTTTTGGAAAGTGTACAATATTATATATTAAA [XGTACX_site2163]	6.18
GAAATACCGGAAAGCAAACACACATTTTAAAACCAT [CACACA_site3861]	6.73
ATACATATATATAGGTGTACATATAATATATATATA [XGTACX_site2228]	8.33
AACCATGTTAACAATGCATGCATCACTATATAAACG [TGCATGCA_site421]	7.07
TTTAATTTTACATGAGAAACATATTACAATAAAATA [GTGCAC_negctrl_site606]	6.15
TGACTTTGTTGAATTTGTCCTCTTAACTCATAATAT [GTGCAC_negctrl_site217]	6.21
TTCTGTGTCTAAAAATGTACGGGAATATATAAAAGT [XGTACX_site2090]	7.37
ACATAATATATATATTAACACACATCCTTTTATGTA [CACACA_site8317]	6.92
ACTTATATTATAAATTGTACAAATATTATATTTGGT [XGTACX_site1424]	6.82

Sequence	gcPBM binding intensity (ln)
TTATTTTGTTTATTATGTACACAAAGACATAATAAT [XGTACX_site5648]	6.58
CACTTACATAATTATTGTACAGATATTATCAAATAA [XGTACX_site567]	6.5
TTTTTTTTTTTTAAATGTACTTATCAACTTTTATAT [XGTACX_site4641]	6.27
AAAAAAAAAAGACACACACACACACGCATATACATA [CACACA_site7289]	6.75
TACGTAAAAATAATACGTACATATATTTATAGAAAA [XGTACX_site4959]	6.35
ACGGACAATACGGAAACACACAAGTTATTTTATCAT [CACACA_site7310]	6.21
AATAAAATAATCCAAGTGCATATGTAAAAATACATT [GTGCAC_site9576]	7.92
AATATATGTAAATGGACACACACATATATATATATA [CACACA_site9220]	9.25
CTCAATATTATTACTACACACAAATTAATATTTTCC [CACACA_site55]	6.59
ATATATACTATATTTTAACACACAAAAAAAAAAAAT [CACACA_site8277]	6.5
TGTTAATTGAATGCAATCTGAATTTTTTTACATAAT [CACACA_negctrl_site1002]	6.24
CACCCACCCAGACACACACACACAAAAAAAAAAAGA [CACACA_site499]	6.72
CTTTTTTCAAGACACACACACAAGAAAATATAAATA [CACACA_site7455]	7.03
CGGCACGTGATATATACACACATATAGATATATACA [CACACA_site6408]	6.54
TGGATAATGAATGATGCACACTAAAAATATTCTACA [CACACA_site5912]	8.46
TATTTGTAAATCGATACACACATATATCTTAATATA [CACACA_site4273]	6.28
TCAAGTATTAAAATGGGTACATAAATATGTGTATAT [XGTACX_site5884]	6.63
CATATAAAAAAATAGACACACATTTTATATAATACG [CACACA_site1896]	6.64
